Assay results: patent US20090155349A1, “METHODS OF TREATING INFLUENZA VIRAL INFECTIONS” (priority 2006, published 2009)
Read-outs that look alike come from different tables or passages of the source.

Legend:
[1] = system: IL-6 production by RAW 264.7 macrophages
[2] = system: production of TNF-α by RAW 264.7 macrophages infected with influenza strain A/WS/33; test: TNF-α production, A/WS/33 infection, high MOI model, ELISA; type: cell-based, mouse; conditions: for suppression of the induction of TNF-α: high MOI time course
[3] = system: LPS-induced PGF1α production by RAW 264.7 macrophages; test: LPS-induced PGF1α production, ELISA; conditions: M4N 25 μM, LPS 1 μg/ml, 16 h, two experiments
[4] = system: IFN-β production by RAW 264.7 macrophages
[5] = system: production of TNF-α by LPS-stimulated RAW 264.7 macrophages; test: LPS-induced TNF-α production, mouse TNF-α ELISA; conditions: M4N 25 μM, LPS 1 μg/ml, 10 hours post induction
[6] = system: LPS-induced production of PGE2 in RAW 264.7 macrophages; test: LPS-induced PGE2 production, prostaglandin E2 immunoassay; type: cell-based, mouse; conditions: M4N 25 μM, LPS 1 μg/ml
[7] = system: cytokine production by RAW264.7 macrophages; test: Antibody array (mouse inflammatory array-1), cytokines with or without LPS; conditions: for inhibition at 25 µM: Mus musculus
[8] = system: LPS-induced PGF2α production by RAW 264.7 macrophages; test: LPS-induced PGF2α production, ELISA; conditions: M4N 25 μM, LPS 1 μg/ml, 16 h, two experiments
[9] = system: TNF-α production in RAW 264.7 macrophages
[10] = system: production of TNF-α by RAW 264.7 macrophages infected with influenza strain A/WS/33; test: TNF-α production, A/WS/33 infection, low MOI model, ELISA; type: cell-based, mouse
[11] = system: influenza-induced production of cytokines by RAW 264.7 macrophages; test: Antibody array (mouse inflammatory array-1), A/WS/33 infection, low MOI; type: cell-based; conditions: 24 h
[12] = system: influenza virus A/WS/33
[13] = system: production of PGE2 by RAW 264.7 macrophages infected with influenza strain A/WS/33; test: PGE2 production, A/WS/33 infection, high MOI model, ELISA; type: cell-based, mouse; conditions: 24 hrs
[14] = low MOI conditions, 25 μM, no virus

**Q.** What does the source list for COc1ccc(C[C@@H](C)[C@@H](C)Cc2ccc(OC)c(OC)c2)cc1OC [M4N, meso-1,4-bis(3,4-dimethoxyphenyl)-2,3-dimethylbutane]?
**A.** levels of IL-6 detected following treatment with EM-1421 [1]: 10 pg/mL; inhibition at 25 µM ([2]; Mus musculus, RAW264.7, high MOI dose response, 25 μM, read-out: inhibition of the increased production of TNF-α by influenza infection): ~60%; inhibition at 10 µM ([2]; Mus musculus, RAW264.7, high MOI dose response, about 10 μM, read-out: inhibition of the increased production of TNF-α by influenza infection): ~34%; block of influenza-induced increase in the production of TNF-α ([2]; high MOI 5, 25 μM, 24 hrs (FIG. 13)): completely blocked; reduction of background TNF-α by EM-1421 alone ([2]; high MOI model, mock infected, 25 μM, 24 hrs): about 35%; suppression of the induction of TNF-α ([2]; 12 h): 51%; suppression of the induction of TNF-α ([2]; 24 h): 55%; mean % suppression of LPS-induced PGF1α production [3]: 41%; induction of the production of IFN-β [4]: did not induce; maximal inhibition of LPS-induced TNF-α overexpression [5]: 57%; suppression of LPS-induced PGE2 production ([6]; 6 hours): 72%; suppression of LPS-induced PGE2 production ([6]; 10 hours): 64%; suppression of PGE2 in the supernatants of the PGF1α experiment ([6]; 16 h, confirmatory measurement): more than 90%; suppression of LPS-induced PGE2 production ([6]; 16 hours): 80%; production of BLC ([7]; EM-1421 25 μM alone, no LPS): reduced; production of IL-1α ([7]; EM-1421 25 μM alone, no LPS): increased; production of IL-4 ([7]; EM-1421 25 μM alone, no LPS): reduced; production of IL-9 ([7]; EM-1421 25 μM alone, no LPS): reduced; production of IL-12p40p70 ([7]; EM-1421 25 μM alone, no LPS): reduced; production of KC ([7]; EM-1421 25 μM alone, no LPS): reduced; production of MIG ([7]; EM-1421 25 μM alone, no LPS): increased; production of MIP-1α ([7]; EM-1421 25 μM alone, no LPS): reduced; production of MIP-1γ ([7]; EM-1421 25 μM alone, no LPS): reduced; increase of LPS-induced production of IL-12p40p70 ([7]; EM-1421 25 μM, LPS 1 μg/ml): about 43%; inhibition of LPS-induced production of G-CSF ([7]; EM-1421 25 μM, LPS 1 μg/ml): did not inhibit; inhibition of LPS-induced production of IL-6 ([7]; EM-1421 25 μM, LPS 1 μg/ml): did not inhibit; inhibition of LPS-induced production of IL-12p70 ([7]; EM-1421 25 μM, LPS 1 μg/ml): did not inhibit; inhibition of LPS-induced production of MIP1-α ([7]; EM-1421 25 μM, LPS 1 μg/ml): did not inhibit; inhibition of LPS-induced production of RANTES ([7]; EM-1421 25 μM, LPS 1 μg/ml): did not inhibit; inhibition at 25 µM ([7]; RAW264.7, read-out: inhibition of LPS-induced production of BLC): ~100%; inhibition at 25 µM ([7]; RAW264.7, read-out: inhibition of LPS-induced production of I-TAC): ~100%; inhibition at 25 µM ([7]; RAW264.7, read-out: inhibition of LPS-induced production of IL-1α): ~20%; inhibition at 25 µM ([7]; RAW264.7, read-out: inhibition of LPS-induced production of IL-2): ~100%; inhibition at 25 µM ([7]; RAW264.7, read-out: inhibition of LPS-induced production of IL-3): ~100%; inhibition at 25 µM ([7]; RAW264.7, read-out: inhibition of LPS-induced production of MCP-1): ~33%; inhibition at 25 µM ([7]; RAW264.7, read-out: inhibition of LPS-induced production of TIMP-1): ~30%; inhibition at 25 µM ([7]; RAW264.7, read-out: inhibition of LPS-induced production of TIMP-2): ~100%; inhibition at 25 µM ([7]; RAW264.7, read-out: inhibition of LPS-induced production of TNF-α): ~24%; inhibition at 25 µM ([7]; RAW264.7, read-out: inhibition of LPS-induced production of sTNFRI): ~63%; inhibition at 25 µM ([7]; RAW264.7, read-out: inhibition of LPS-induced production of sTNFRII): ~20%; mean % suppression of LPS-induced PGF2α production [8]: 82%; inhibition of TNF-α production following induction with A23187 [9]: not observed; inhibition of TNF-α production following induction with PMA [9]: not observed; block of influenza-induced increase in the production of TNF-α ([10]; low MOI 0.002, 25 μM, 24 hrs): completely blocked; final concentration as low as which increased TNF-α production (medium alone or medium and influenza) was inhibited ([10]; low MOI dose response, 0.1, 1, 10, 25 μM tested): 0.1 µM; reduction of medium-induced TNF-α by EM-1421 alone ([10]; low MOI model, mock infected, serum-free infection medium, 25 μM, 24 hrs): about 67%; suppression of TNF-α induction over time ([10]; low MOI time course, 4, 12, 24 hrs): remained suppressed; block of flu-induced production of G-CSF ([11]; 0.002 MOI A/WS/33, 25 μM): blocked completely; block of flu-induced production of MIP-1γ ([11]; 0.002 MOI A/WS/33, 25 μM): ~60%; block of flu-induced production of TNF-α ([11]; 0.002 MOI A/WS/33, 25 μM): completely blocked; inhibition of flu-induced production of MCP-1 ([11]; 0.002 MOI A/WS/33, 25 μM): did not inhibit; inhibition of flu-induced production of sTNF RII ([11]; 0.002 MOI A/WS/33, 25 μM): did not inhibit; block of medium-induced production of MIP-1γ [11, 14]: completely blocked; block of medium-induced production of TNF-α [11, 14]: completely blocked; inhibition of A/WS/33 replication in RAW 264.7 macrophages ([12]; EM-1421 3 μM, 6 μM, 12 μM and 25 μM, MOI 0.002, added 30 min after infection): did not inhibit; enhancement of A/WS/33 production from RAW 264.7 macrophages ([12]; EM-1421 3-25 μM, MOI 0.002, added 30 min after infection): < 1 log; enhancement of A/WS/33 growth in pretreated RAW 264.7 cells ([12]; pretreatment 2 hrs, EM-1421 25 μM, 36 hr time point): 1 log; reduction of influenza-induced increase in the production of PGE2 ([13]; high MOI 5, 25 μM): 32%; increase of the level of PGE2 by EM-1421 alone ([13]; high MOI model, mock infected, 25 μM, PGE2 at low levels): about two fold
